Source: the supplement of paper PMC4967469
pIC50: −log10 of the molar value. Lines with a small IC50 respond at low doses; a limit (>, <) means that the fit lies beyond the doses tested. AUC, from the same fit, is the share of area under the viability curve across the 256-fold dose range; values near 1 show little effect. For some assays here: An inferred top dose was calculated from the reported fits. For some assays here: Where an entry number is given, a second screen of the drug exists; the two often differ.

How the values were obtained:
Assay in all cases: Viability of human cancer cell lines after 72 h of drug (GDSC screen)
JNK-9L = compound: Fc1cc(-c2ccnc(Nc3ccc(-n4cnc(N5CCOCC5)n4)cc3)n2)cc(N2CCOCC2)c1 [JNK-9L]; conditions: top dose 5.12 µM; top dose inferred
Description: (§1)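 Human cancer cell lines in 384-well plates, medium with 10% serum, drug for 72 h over a 256-fold dose range (nine 2-fold or five 4-fold steps up to the top dose). Adherent lines were fixed and stained with the nucleic acid dye Syto60, suspension lines read with resazurin; signal relative to control wells, capped at 0 and 100%. One two-parameter sigmoid per drug and line, fitted in a mixed model over all curves with the slope shared within a line.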

CUDC-101 = compound: C#Cc1cccc(Nc2ncnc3cc(OC)c(OCCCCCCC(=O)NO)cc23)c1 [CUDC-101]; conditions: top dose 5.12 µM; top dose inferred
Description: as §1

RDEA119 = compound: COc1cc(F)c(F)c(Nc2ccc(I)cc2F)c1NS(=O)(=O)C1(C[C@H](O)CO)CC1 [RDEA119]; conditions: top dose 5 µM, top dose inferred
Description: as §1

5-Fluorouracil = compound: O=c1[nH]cc(F)c(=O)[nH]1 [5-Fluorouracil]; conditions: top dose 32 µM; top dose inferred
Description: as §1

OSU-03012 = compound: NCC(=O)Nc1ccc(-n2nc(C(F)(F)F)cc2-c2ccc3c(ccc4ccccc43)c2)cc1 [OSU-03012]; conditions: top dose 16 µM; top dose inferred
Description: as §1

AC220 = compound: CC(C)(C)c1cc(NC(=O)Nc2ccc(-c3cn4c(n3)sc3cc(OCCN5CCOCC5)ccc34)cc2)no1 [AC220]; conditions: top dose 1.024 µM; top dose inferred
Description: as §1

QS11 = compound: OC[C@H](Cc1ccccc1)Nc1nc(Oc2ccc3c(c2)CCC3)nc2c1ncn2Cc1ccc(-c2ccccc2)cc1 [QS11]; conditions: top dose 10.24 µM
Description: as §1

Cell Line	AUC (JNK-9L)	pIC50 (JNK-9L)	AUC (CUDC-101)	pIC50 (CUDC-101)	AUC (RDEA119; screen: GDSC drug entry 1014)	pIC50 (RDEA119; screen: GDSC drug entry 1014)	AUC (RDEA119; screen: GDSC drug entry 1526)	pIC50 (RDEA119; screen: GDSC drug entry 1526)	AUC (5-Fluorouracil)	pIC50 (5-Fluorouracil)	AUC (OSU-03012)	pIC50 (OSU-03012)	AUC (AC220)	pIC50 (AC220)	AUC (QS11)	pIC50 (QS11)
COR-L279 (small cell lung carcinoma, suspension)	0.724	5.90	0.379	6.81	0.989	< 5.30	0.985	< 5.30	0.936	< 4.49	0.914	< 4.80	0.923	< 5.99	0.896	< 4.99
CP50-MEL-B (melanoma, adherent)	0.623	6.16	0.552	6.35	0.245	7.24	0.381	6.83	0.957	< 4.49	0.864	4.86	0.987	< 5.99	0.986	< 4.99
CP66-MEL (melanoma, adherent)	0.658	6.03	0.782	5.61	0.338	6.99	0.312	7.07	0.984	< 4.49	0.866	< 4.80	0.972	< 5.99	0.836	5.09
CPC-N (small cell lung carcinoma, suspension)	0.875	< 5.29	0.462	6.60	0.951	< 5.30	0.971	< 5.30	0.684	5.16	0.985	< 4.80	0.977	< 5.99	0.837	5.11
CS1 (bone, adherent)	0.665	6.01	0.588	6.24	0.788	5.61	0.871	< 5.30	0.796	4.77	0.803	5.04	0.978	< 5.99	0.976	< 4.99
CTV-1 (acute myeloid leukaemia, suspension)	0.503	6.49	0.419	6.70	0.949	< 5.30	0.983	< 5.30	0.838	4.80	0.629	5.68	0.983	< 5.99	0.939	< 4.99
CW-2 (large intestine, adherent)	0.972	< 5.29	0.719	5.85	0.872	< 5.30	0.942	< 5.30	0.704	5.10	0.988	< 4.80	0.987	< 5.99	0.988	< 4.99
Ca9-22 (head and neck, adherent)	0.532		0.319	6.98	0.701	5.96	0.709	5.94	0.865	4.60	0.631	5.65	0.988	< 5.99	0.897	< 4.99
Ca-Ski (cervix, adherent)	0.599	6.21	0.395	6.80	0.863	< 5.30	0.917	< 5.30	0.794	4.77	0.777	5.14	0.955	< 5.99	0.974	< 4.99
